Test results published in the supplement of paper PMC8728848.
This is one part of the list.

What was measured:
Assay in all cases: glycan array binding signal (z-score within array); higher = stronger binding
Conditions in all cases: glycan notation: IUPAC condensed, linker removed
[1] = target: GlcNAc(b1-4)GlcNAc(b1-4)GlcNAc
How it was run: (§1)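 Columns mapping to the same glycan were averaged after glycan names were converted to IUPAC-condensed notation. The data come from 3228 arrays in the Consortium for Functional Glycomics database, limited to those with an available protein sequence. Binding is reported as a within-array Z-score averaged across arrays of one protein sequence and across linkers.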

[2] = target: GlcNAc(b1-4)GlcNAc(b1-4)GlcNAc(b1-4)GlcNAc(b1-4)GlcNAc
How it was run: as §1

[3] = target: GlcNAc(b1-4)GlcNAc(b1-4)GlcNAc(b1-4)GlcNAc(b1-4)GlcNAc(b1-4)GlcNAc
How it was run: as §1

[4] = target: GlcNAc(b1-4)[GlcNAc(b1-6)]GalNAc
How it was run: as §1

[5] = target: GlcNAc(b1-6)Gal(b1-4)GlcNAc
How it was run: as §1

GlcNAc(b1-6)GalNAc = target: GlcNAc(b1-6)GalNAc
How it was run: as §1

GlcNAc3Prop(b1-4)GlcNAc = target: GlcNAc3Prop(b1-4)GlcNAc
How it was run: as §1

[6] = target: GlcNAc6S(b1-3)Gal(b1-4)GlcNAc
How it was run: as §1

Kdn(a2-3)Gal(b1-3)GalNAc = target: Kdn(a2-3)Gal(b1-3)GalNAc
How it was run: as §1

Kdn(a2-3)Gal(b1-3)GlcNAc = target: Kdn(a2-3)Gal(b1-3)GlcNAc
How it was run: as §1

Kdn(a2-3)Gal(b1-4)Glc = target: Kdn(a2-3)Gal(b1-4)Glc
How it was run: as §1

Kdn(a2-3)Gal(b1-4)GlcNAc = target: Kdn(a2-3)Gal(b1-4)GlcNAc
How it was run: as §1

[7] = target: Kdn(a2-3)Gal(b1-4)[Fuc(a1-3)]GlcNAc
How it was run: as §1

Kdn(a2-6)Gal(b1-4)GlcNAc = target: Kdn(a2-6)Gal(b1-4)GlcNAc
How it was run: as §1

[8] = target: Man(a1-2)Man(a1-2)Man(a1-3)Man
How it was run: as §1

[9] = target: Man(a1-2)Man(a1-2)Man(a1-6)[Man(a1-3)]Man
How it was run: as §1

Man(a1-2)Man(a1-3)Man = target: Man(a1-2)Man(a1-3)Man
How it was run: as §1

[10] = target: Man(a1-2)Man(a1-3)[Man(a1-2)Man(a1-6)]Man
How it was run: as §1

[11] = target: Man(a1-2)Man(a1-3)[Man(a1-2)Man(a1-6)]Man(a1-6)[Man(a1-2)Man(a1-2)Man(a1-3)]Man
How it was run: as §1

[12] = target: Man(a1-2)Man(a1-3)[Man(a1-2)Man(a1-6)]Man(a1-6)[Man(a1-2)Man(a1-2)Man(a1-3)]Man(b1-4)GlcNAc(b1-4)GlcNAc
How it was run: as §1

[13] = target: Man(a1-2)Man(a1-3)[Man(a1-6)]Man(a1-6)[Man(a1-2)Man(a1-3)]Man(b1-4)GlcNAc(b1-4)GlcNAc
How it was run: as §1

[14] = target: Man(a1-2)Man(a1-6)[Man(a1-3)]Man(a1-6)[Man(a1-2)Man(a1-2)Man(a1-3)]Man
How it was run: as §1

[15] = target: Man(a1-2)Man(a1-6)[Man(a1-3)]Man(a1-6)[Man(a1-2)Man(a1-2)Man(a1-3)]Man(b1-4)GlcNAc(b1-4)GlcNAc
How it was run: as §1

Man(a1-3)[Man(a1-6)]Man = target: Man(a1-3)[Man(a1-6)]Man
How it was run: as §1

[16] = target: Man(a1-3)[Man(a1-6)]Man(a1-6)[Man(a1-2)Man(a1-3)]Man(b1-4)GlcNAc(b1-4)GlcNAc
How it was run: as §1

[17] = target: Man(a1-3)[Man(a1-6)]Man(a1-6)[Man(a1-3)]Man
How it was run: as §1

[18] = target: Man(a1-3)[Man(a1-6)]Man(a1-6)[Man(a1-3)]Man(b1-4)GlcNAc(b1-4)GlcNAc
How it was run: as §1

[19] = target: Man(a1-3)[Man(a1-6)]Man(b1-4)GlcNAc(b1-4)GlcNAc
How it was run: as §1

Man(a1-6)Man = target: Man(a1-6)Man
How it was run: as §1

Man(b1-4)GlcNAc = target: Man(b1-4)GlcNAc
How it was run: as §1

Neu5Ac(a2-3)Gal = target: Neu5Ac(a2-3)Gal
How it was run: as §1

[20] = target: Neu5Ac(a2-3)Gal(b1-3)GalNAc
How it was run: as §1

[21] = target: Neu5Ac(a2-3)Gal(b1-3)GalNAc(b1-3)Gal(a1-4)Gal(b1-4)Glc
How it was run: as §1

[22] = target: Neu5Ac(a2-3)Gal(b1-3)GalNAc(b1-3)Gal(b1-4)GlcNAc
How it was run: as §1

[23] = target: Neu5Ac(a2-3)Gal(b1-3)GalNAc(b1-4)[Neu5Ac(a2-3)]Gal(b1-4)Glc
How it was run: as §1

[24] = target: Neu5Ac(a2-3)Gal(b1-3)GalNAc6S
How it was run: as §1

[25] = target: Neu5Ac(a2-3)Gal(b1-3)GlcNAc
How it was run: as §1

[26] = target: Neu5Ac(a2-3)Gal(b1-3)GlcNAc(b1-3)Gal(b1-3)GlcNAc
How it was run: as §1

[27] = target: Neu5Ac(a2-3)Gal(b1-3)GlcNAc6S
How it was run: as §1

[28] = target: Neu5Ac(a2-3)Gal(b1-3)[Fuc(a1-4)]GlcNAc
How it was run: as §1

[29] = target: Neu5Ac(a2-3)Gal(b1-3)[Fuc(a1-4)]GlcNAc(b1-3)Gal(b1-3)[Fuc(a1-4)]GlcNAc
How it was run: as §1

[30] = target: Neu5Ac(a2-3)Gal(b1-3)[Fuc(a1-4)]GlcNAc(b1-3)Gal(b1-4)[Fuc(a1-3)]GlcNAc
How it was run: as §1

[31] = target: Neu5Ac(a2-3)Gal(b1-3)[Neu5Ac(a2-3)Gal(b1-4)]GlcNAc
How it was run: as §1

[32] = target: Neu5Ac(a2-3)Gal(b1-3)[Neu5Ac(a2-6)]GalNAc
How it was run: as §1

Neu5Ac(a2-3)Gal(b1-4)Glc = target: Neu5Ac(a2-3)Gal(b1-4)Glc
How it was run: as §1

[33] = target: Neu5Ac(a2-3)Gal(b1-4)GlcNAc
How it was run: as §1

[34] = target: Neu5Ac(a2-3)Gal(b1-4)GlcNAc(b1-2)Man(a1-3)[GlcNAc(b1-2)Man(b1-4)GlcNAc(b1-2)Man(a1-6)]Man(b1-4)GlcNAc(b1-4)GlcNAc
How it was run: as §1

[35] = target: Neu5Ac(a2-3)Gal(b1-4)GlcNAc(b1-2)Man(a1-3)[Neu5Ac(a2-6)Gal(b1-4)GlcNAc(b1-2)Man(a1-6)]Man(b1-4)GlcNAc(b1-4)GlcNAc
How it was run: as §1

[36] = target: Neu5Ac(a2-3)Gal(b1-4)GlcNAc(b1-3)Gal(b1-3)GlcNAc
How it was run: as §1

[37] = target: Neu5Ac(a2-3)Gal(b1-4)GlcNAc(b1-3)Gal(b1-4)GlcNAc
How it was run: as §1

[38] = target: Neu5Ac(a2-3)Gal(b1-4)GlcNAc(b1-3)Gal(b1-4)GlcNAc(b1-3)Gal(b1-4)GlcNAc
How it was run: as §1

[39] = target: Neu5Ac(a2-3)Gal(b1-4)GlcNAc(b1-3)Gal(b1-4)[Fuc(a1-3)]GlcNAc
How it was run: as §1

[40] = target: Neu5Ac(a2-3)Gal(b1-4)GlcNAc(b1-3)GalNAc
How it was run: as §1

[41] = target: Neu5Ac(a2-3)Gal(b1-4)GlcNAc(b1-6)[Gal(b1-3)]GalNAc
How it was run: as §1

[42] = target: Neu5Ac(a2-3)Gal(b1-4)GlcNAc(b1-6)[Neu5Ac(a2-3)Gal(b1-3)]GalNAc
How it was run: as §1

[43] = target: Neu5Ac(a2-3)Gal(b1-4)GlcNAc6S
How it was run: as §1

[44] = target: Neu5Ac(a2-3)Gal(b1-4)[Fuc(a1-3)]GlcNAc
How it was run: as §1

[45] = target: Neu5Ac(a2-3)Gal(b1-4)[Fuc(a1-3)]GlcNAc(b1-3)Gal
How it was run: as §1

[46] = target: Neu5Ac(a2-3)Gal(b1-4)[Fuc(a1-3)]GlcNAc(b1-3)Gal(b1-4)GlcNAc
How it was run: as §1

[47] = target: Neu5Ac(a2-3)Gal(b1-4)[Fuc(a1-3)]GlcNAc(b1-3)Gal(b1-4)[Fuc(a1-3)]GlcNAc(b1-3)Gal(b1-4)[Fuc(a1-3)]GlcNAc
How it was run: as §1

B1: DETC sTCR (Mus musculus) (protein)
chain: LDVYLEPVAKTFTVVAGDPASFYCTVTGGDMKNYHMSWYKKNGTNALFLVYKLNSNSTDGGKSNLKGKINISKNQFILDIQKATMKDAGTYYCGSDIGGSSWDTRQMFFGTGIELFVEPKSQPPAKPSVFIMKNGTNVACLVKDFYPKEVTISLRSSKKIVEFDPAIVISPSGKYSAVKLGQYGDSNSVTCSVQHNSETVHSTDFEPYANSFNNEKLPEPENDTQISEPCSSADLVPRGSTTAPSAQLKKKLQALKKKNAQLKWKLQALKKKLAQHHHHHHDSWISQDQLSFTRRPNKTVHISCKLSGVPLHNTIVHWYQLKEGEPLRRIFYGSVKTYKQDKSHSRLEIDEKDDGTFYLIINNVVTSDEATYYCACWDSSGFHKVFAEGTKLIVIPSDKRLDADISPKPTIFLPSVAETNLHKTGTYLCLLEKFFPDVIRVYWKEKDGNTILDSQEGDTLKTNDTYMKFSWLTVPERAMGKEHRCIVKHENNKGGADQEIFFPSIKKVAVSTKPTTCSSADLVPRGSTTAPSAQLEKELQALEKENAQLEWELQALEKELAQLNDIFEAQKIEW
[1]
  glycan array binding signal (z-score): -0.563
[2]
  glycan array binding signal (z-score): 0.231
[3]
  glycan array binding signal (z-score): 0.14
[4]
  glycan array binding signal (z-score): -0.619
[5]
  glycan array binding signal (z-score): -0.264
GlcNAc(b1-6)GalNAc
  glycan array binding signal (z-score): 0.306
GlcNAc3Prop(b1-4)GlcNAc
  glycan array binding signal (z-score): -0.24
[6]
  glycan array binding signal (z-score): 0.667
Kdn(a2-3)Gal(b1-3)GalNAc
  glycan array binding signal (z-score): -0.484
Kdn(a2-3)Gal(b1-3)GlcNAc
  glycan array binding signal (z-score): -0.409
Kdn(a2-3)Gal(b1-4)Glc
  glycan array binding signal (z-score): -0.637
Kdn(a2-3)Gal(b1-4)GlcNAc
  glycan array binding signal (z-score): -0.276
[7]
  glycan array binding signal (z-score): -0.864
Kdn(a2-6)Gal(b1-4)GlcNAc
  glycan array binding signal (z-score): -0.381
[8]
  glycan array binding signal (z-score): -0.561
[9]
  glycan array binding signal (z-score): 0.993
Man(a1-2)Man(a1-3)Man
  glycan array binding signal (z-score): -0.043
[10]
  glycan array binding signal (z-score): 2.29
[11]
  glycan array binding signal (z-score): -0.534
[12]
  glycan array binding signal (z-score): -0.22
[13]
  glycan array binding signal (z-score): 0.382
[14]
  glycan array binding signal (z-score): -0.197
[15]
  glycan array binding signal (z-score): -0.373
Man(a1-3)[Man(a1-6)]Man
  glycan array binding signal (z-score): 0.885
[16]
  glycan array binding signal (z-score): -0.581
[17]
  glycan array binding signal (z-score): 0.347
[18]
  glycan array binding signal (z-score): -0.543
[19]
  glycan array binding signal (z-score): -0.526
Man(a1-6)Man
  glycan array binding signal (z-score): -0.626
Man(b1-4)GlcNAc
  glycan array binding signal (z-score): 0.636
Neu5Ac(a2-3)Gal
  glycan array binding signal (z-score): -0.674
[20]
  glycan array binding signal (z-score): 1.65
[21]
  glycan array binding signal (z-score): -0.384
[22]
  glycan array binding signal (z-score): -0.515
[23]
  glycan array binding signal (z-score): 0.102
[24]
  glycan array binding signal (z-score): 1.09
[25]
  glycan array binding signal (z-score): 1.16
[26]
  glycan array binding signal (z-score): 0.815
[27]
  glycan array binding signal (z-score): -0.644
[28]
  glycan array binding signal (z-score): -0.698
[29]
  glycan array binding signal (z-score): -0.1
[30]
  glycan array binding signal (z-score): -0.613
[31]
  glycan array binding signal (z-score): -0.657
[32]
  glycan array binding signal (z-score): 0.424
Neu5Ac(a2-3)Gal(b1-4)Glc
  glycan array binding signal (z-score): -0.588
[33]
  glycan array binding signal (z-score): -0.121
[34]
  glycan array binding signal (z-score): -0.044
[35]
  glycan array binding signal (z-score): -0.39
[36]
  glycan array binding signal (z-score): 0.859
[37]
  glycan array binding signal (z-score): -0.662
[38]
  glycan array binding signal (z-score): -0.518
[39]
  glycan array binding signal (z-score): -0.36
[40]
  glycan array binding signal (z-score): -0.126
[41]
  glycan array binding signal (z-score): 0.168
[42]
  glycan array binding signal (z-score): 0.244
[43]
  glycan array binding signal (z-score): -0.639
[44]
  glycan array binding signal (z-score): -0.251
[45]
  glycan array binding signal (z-score): 0.467
[46]
  glycan array binding signal (z-score): -0.596
[47]
  glycan array binding signal (z-score): -0.556
